Data: the supplement of paper PMC11417369
The list shows a part of the results.

system: PF3D7_0420300 AP2 domain 1 (GST-tagged); experiment: gcPBM binding intensity (ln(normalized median fluorescence intensity)); higher = stronger DNA binding
Procedure, shortened: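 GST-fused DNA-binding domains of P. falciparum, expressed in E. coli, were applied at about 25 μg on average for 1 h to an Agilent 4 × 180k array of primer-extended double-stranded 36-bp intergenic genomic probes and negative controls. Binding intensity is the highest Masliner-normalised natural-log median intensity across replicate spots of either probe orientation, measured with Alexa488 anti-GST antibody and a 488 nm scan.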

Point of comparison: “TATCTCTTCATATTGTGTACATATTTTTATTTATTG [XGTACX_site4038]”, “gcPBM binding intensity (ln)” value 9.68. Against it:
- TTCTTTTCTTTAGTAGAATGTAAAAAATATAATCTT [XGTACX_negctrl_site290] — lower, 8.93
- ACTTATATATTATGTTGTCCGTCCATTCTCTTTATC [XGTACX_site3769] — higher, 9.91
- TTTTCATTCAATTATATTTATATATATATATATATA [GTGCAC_negctrl_site538] — lower, 9.11
- TACATGTATAAATAAGCACACATGTGGATATGTACA [CACACA_site93] — lower, 9.55
- CAAAATATTTTTATAACACACATATATATAATGTGC [CACACA_site4767] — lower, 9.28
- AAATATATATATATATATATATATATATATATATAT [CACACA_negctrl_site677] — lower, 8.86
- AAATGAATAAATAAGACACACACGAAAATAAGTAAA [CACACA_site71] — higher, 10.1
- TTATAAAATTACTTGGTGCATTAGAATATTTCAATA — lower, 8.91
- TGATCAGATAGACACACACACAAAAAAAAAAAAAAA [CACACA_site7805] — lower, 9.54
- ATAAAATATAAAAATTGTACGATAATAATAGTAGGA [XGTACX_site8951] — lower, 9.54
- AACACTTCTTATTTATGTACTTAATTCCCAACGGAA [XGTACX_site4818] — lower, 9.18
- AATTACTACATAAATACATGCATAATTATATATATA [TGCATGCA_site783] — lower, 9.29
- TTGTATTATATTGTATTATGTTTAAATGAAAAAAAA [CACACA_negctrl_site662] — lower, 8.91
- TATTGTTACTTTATATGTACTAATTAAACATATACA [XGTACX_site6363] — lower, 9.19
- AAATATTAGTAACACAGACACACAAAAAAAAAAAAA [CACACA_site2175] — lower, 9.5
- AAAAATACCTTATATATACACACTATGTTTTTCTTT [CACACA_site1192] — lower, 9.56
- AAAAAAAAAAAAAAAAGTACACAAATTTTAAAAATT [XGTACX_site3006] — lower, 9.23
- TTTTCTAAATAAATAGTGCATTTATTATATATACAT [GTGCAC_site9766] — lower, 9.22
- TGTTTATTTTTAAAAAGTACATATTTAAAAAACTTC [XGTACX_site271] — lower, 8.81
- CAAAAGAAGGTAAACACACACACACGCATACAAAAA [CACACA_site7724] — higher, 10.1
- ATAGAATAAAACTATACACACCTATATTTAAACATA [CACACA_site5106] — lower, 9.63
- CAAAACCTTATATGTACACACATATACATCACCCTT [CACACA_site3170] — lower, 9.67
- ATTTCTCTATCGTAATGTACATAAAAAATGAAAAAA [XGTACX_site1201] — lower, 8.87
- TTGTATTCATAACAACGTACATATTTTGTAACTAAA [XGTACX_site4029] — lower, 9.02
- TTTCAAACAAAAAGACGTACACTGAAGTTATCCGTC [XGTACX_site8824] — lower, 8.91
- AAGGAAATATAATATACACACATAAGTGTACTTCTA [CACACA_site6079] — lower, 9.36
- CAATCAAATAGACACACACACACCTAAACATAAAAG [CACACA_site7322] — higher, 10.1
- TATTAATAAAAGCATTGTACAGTAATAAATAAATAA [XGTACX_site2924] — lower, 9.36
- TATATATATAAACACACACACACCAAAGCGTAGCGC [CACACA_site7903] — higher, 10.2
- AGCCATTAATTCTCTACACACCTTTATGTTATTTAG [CACACA_site3635] — higher, 9.71
- ACCCACTTTTGAGGTGTGCACAATAAATTGGACATT — lower, 9.18
- ATATATATTTAAACTACACACGCATATCTTAGAAAT [CACACA_site8348] — lower, 9.56
- TAAGAGATATTTTATTAAATGTTTTATGAATCATGT [TGCATGCA_negctrl_site264] — lower, 8.86
- AGGAAAAAAAAAATGACACACATATTTGAATTAAAA [CACACA_site1352] — lower, 9.49
- GTACATACATAAAACACACACATATAGATTTATATA [CACACA_site6945] — higher, 9.77
- AGTGTGTGTAATAAAGTGCATTAAAAATGACACGTA — higher, 9.76
- ACTCATAAAAATAGATGTACTTTAATAATTTGATTT [XGTACX_site8763] — lower, 9.15
- TCAAACGGTTAAATATGTACATATATATATATATAT [XGTACX_site2339] — lower, 9.2
- AAAAAAAAAAGACACACACACATATAAATATAAATA [CACACA_site6899] — higher, 10.2
- ATGTCTACAGTTTTTGCACACATATAAATAAAAAAA [CACACA_site3600] — lower, 9.22
- ATTTTTTTTTTTTTTTTTTTTGAGAAGAACTTTTTC [CACACA_negctrl_site1019] — lower, 8.84
- AAACATCATAAATATACACACATATTTATATTTATA [CACACA_site6437] — lower, 9.53
- CCATAACTCATATGCACACATAAATATTACATATAT [CACACA_site3821] — lower, 9.38
- TTTTAAAAAGAAAAAAATAACATACATATATATATA [CACACA_negctrl_site240] — lower, 9.07
- TAACACATATATTGTTGTACATTCAAACTGAAAAAT [XGTACX_site5565] — lower, 9.28
- TTTTTTTTATTAAAAAGTACTAAACAAATTATATAT [XGTACX_site121] — lower, 8.9
- ATATATATATATATGTGTACATATGTATATATATCT [XGTACX_site2930] — lower, 9.31
- AGATGGAGAAAGTTATGTACACATATATAAATATGT [XGTACX_site6150] — lower, 9.28
- CCCATGTAATGAACATGTACATAATAATTTATAAAT [XGTACX_site8687] — lower, 9.12
- TATATACATATGTGATGTACATTTTTTGTAATATAA [XGTACX_site6985] — lower, 9.13
- ATTCATAATATTATAACACACGCTTATTACATAAAG [CACACA_site980] — lower, 9.28
- CGCATGTATTTTGTGTGTACTAATTATAATCAACTT [XGTACX_site4709] — lower, 9.62
- TTTTACATATACATGTGTACATAACAAAGAATGTTT [XGTACX_site2406] — lower, 9.11
- TAATATTGTATTTATGTACACACATTTTTGGAATAT [CACACA_site8371] — lower, 9.47
- TTTTTTAATAAATGGTGTACATATTTTTTTTATACT [XGTACX_site8584] — lower, 9.24
- AGTGTATTAATTCTCACACACTAAGAAAAAAAAAAA [CACACA_site6007] — lower, 9.23
